According to PubChem BioAssay AID2100 (National Center for Advancing Translational Sciences (NCATS), 2009):
About 1,200 (0.4%) of roughly 300,000 compounds were called active. The inconclusive results got no clear call from the source; some entries with a clear call stand among them for comparison. Calls follow the shape of the dose curve; as a rule, active = well fitted inhibition curve with a large enough effect; inconclusive = small, poorly fitted or top-dose-only effect, or another doubt; inactive = no such curve, though single readings can be large or run the other way. Potencies of inconclusive entries are doubtful fits and often do not repeat.

Target: Lysosomal alpha-glucosidase (Homo sapiens) (UniProt P10253)
Assay: qHTS Assay for Inhibitors and Activators of Human alpha-Glucosidase Cleavage of Glycogen
Settings: recombinant GAA, glycogen substrate, Amplex Red glucose oxidase fluorescence; series mostly up to 76.4 µM
Summary of the method: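 Recombinant enzyme (4 nM final) with compounds titrated up to 77 uM and bovine liver glycogen (30 ug) in citrate pH 5.0, 0.01% Tween-20, 37 C 40 min. Released glucose detected by Amplex Red/glucose oxidase (Ex 573/Em 610); AC50 from Hill fits.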
Potency is read from the fitted curve at half-maximal effect.

Row | SMILES | Potency
1 | Cn1c(=O)c2[nH]c(Nc3ccccc3)nc2n(C)c1=O | active: 7.08 µM
2 | COc1cccc(NC(=S)NCc2ccc3c(c2)cc(C)n3C)c1 | inconclusive: 0.702 µM [inhibitor, full curve]
3 | CCOc1cc(/C=N/Nc2nc(-c3cccc(S(=O)(=O)N4CCCC4)c3)cs2)ccc1O | inconclusive: 50.1 µM [inhibitor, single point]
4 | C/C(CCC(C)C)=N\NC(=S)Nc1cc(S(=O)(=O)N2CCOCC2)ccc1N1CCOCC1 | inconclusive: 17.6 µM [inhibitor, single point]
5 | O=c1[nH]c(-c2ccccc2)c(-c2ccccc2)[nH]1 | inconclusive: 39.8 µM [inhibitor, partial curve, poor fit]
6 | CC1CC(CC(=O)NNc2nc(-c3ccccc3)cs2)C(=O)O1 (stereo not given) | inconclusive: 7.08 µM [inhibitor, partial curve]
7 | CC(=O)Oc1ccc2c(C)cc(=O)oc2c1 | inactive
8 | COc1ccccc1NC(=O)CSc1oc(-c2ccc(F)cc2)nc1S(=O)(=O)c1ccc(Br)cc1 | inactive
9 | COc1ccc(OC)c(/C=N/NC(=O)c2cc[n+](Cc3ccccc3)cc2)c1 | inconclusive: 17.8 µM [inhibitor, partial curve]
10 | S=c1[nH]c2ccccc2n2c(=S)[nH]nc12 | inconclusive: 39.8 µM [inhibitor, single point]
11 | S=C1SCN(Cc2ccco2)CN1Cc1ccco1 | inconclusive: 39.5 µM [inhibitor, single point]
12 | CCC(Sc1nc2ncccc2[nH]1)C(=O)NCCc1ccccc1 (stereo not given) | inconclusive: 50.1 µM [inhibitor, single point]
13 | Cc1ccc(S(=O)(=O)NNC(=O)c2cnn(-c3ccccc3)c2-n2cccc2)cc1 | inconclusive: 50.1 µM [inhibitor, single point]
14 | CC(C)c1ccc(NC(=O)CCn2c(=O)c3cccn3c3ccccc32)cc1 | inconclusive: 39.8 µM [inhibitor, partial curve]
15 | COc1ccc(O)c(/C=N/n2c(-c3ccco3)csc2=Nc2cccnc2)c1 | inactive
16 | CC1CN(C(=O)CCC(=O)NCc2ccccc2)c2cc(Cl)ccc2O1 (stereo not given) | inconclusive: 11.2 µM [inhibitor, partial curve]
17 | Cc1[nH]nc2c1C1(CCN(C(=O)OCc3ccccc3)CC1)C(C#N)=C(N)O2 | inconclusive: 39.5 µM [inhibitor, partial curve]
18 | CC(=O)Nc1ccc(S(=O)(=O)NNC(=O)c2cccc(Cl)c2)cc1 | inconclusive: 39.5 µM [inhibitor, single point]
19 | CC1=NNC(=O)C1CC(=O)N/N=C(\C)c1ccco1 (stereo not given) | inconclusive: 14.1 µM [inhibitor, partial curve]
20 | COc1ccc(OC)c(Nc2nc(-c3ccc(O)c(O)c3)cs2)c1 | active: 28.2 µM
21 | COc1cc(C2N(C)CCC3(OCCO3)C2(C)C)cc(OC)c1OC (stereo not given) | inactive
22 | CC(C)(C)c1cc(/C=N/NC(=O)Cc2nc3ccccc3[nH]2)cc(C(C)(C)C)c1O | inconclusive: 31.6 µM [inhibitor, partial curve]
23 | COc1ccccc1N1C(=O)c2cccc3c(Cl)ccc(c23)C1=O | inactive
24 | C/C(=N\Nc1cccc(Cl)c1)C1(C)N(O)C(C)(C)C(c2ccco2)=[N+]1[O-] (stereo not given) | inconclusive: 28 µM [inhibitor, partial curve]

Row | SMILES | Potency
25 | CCN(CC)CCNC(=O)c1cc2c(-c3ccc(Cl)cc3)nn(C)c2s1 | inactive
26 | CCCCn1c(-c2csc(C(C)C)c2)n[nH]c1=S | inconclusive: 28.2 µM [inhibitor, single point]
27 | O=C(NNS(=O)(=O)c1ccc(Br)cc1)c1ccncc1 | inconclusive: 25.1 µM [inhibitor, single point]
28 | Oc1cccc(/C=N/N2CCN(c3ccccn3)CC2)c1 | inconclusive: 25.1 µM [inhibitor, partial curve]
29 | COc1ccc(N2C(=O)CS/C2=C\[N+](=O)[O-])cc1 | inconclusive: 31.4 µM [inhibitor, single point]
30 | O=C(O)c1cc(N/N=C/c2cccnc2)ccc1Cl | inconclusive: 25.1 µM [inhibitor, partial curve]
31 | CCn1c(SCC(=O)NCCc2ccccc2)nc2sc3c(c2c1=O)CCN(C)C3 | inconclusive: 22.4 µM [activator, partial curve]
32 | Cc1cccc2nc(-c3ccc(Cl)s3)c(Nc3ccc4c(c3)OCCO4)n12 | active: 7.94 µM
33 | O=C1CCCC2=C1Sc1ccccc1N2 | active: 7.08 µM
34 | Cc1ccc2c(CNCCc3ccco3)c(C(=O)O)n(Cc3ccc(F)cc3)c2c1 | inactive
35 | COc1cc(/C=C/C(=O)OC2CC3CCC2(C)C3(C)C)ccc1O (stereo not given) | inconclusive: 28.2 µM [inhibitor, single point]
36 | CC(=O)C1=NN(c2ccccc2)C(c2ccc3c(c2)OCO3)N1c1ccccc1 (stereo not given) | inconclusive: 35.5 µM [inhibitor, single point]
37 | Cc1c(Nc2c3c(c(C#N)c4nc5ccccc5n24)CCC3)c(=O)n(-c2ccccc2)n1C | active: 7.03 µM
38 | O=C(N=c1nc2ccccn2s1)c1ccccc1 | inconclusive: 11.1 µM [activator, partial curve, poor fit]
39 | Cc1ccc(-n2c([C@@H]3C[C@H]3c3ccccc3)n[nH]c2=S)cc1 | inconclusive: 35.5 µM [inhibitor, single point]
40 | Oc1ccccc1OCCOc1ccccc1OCCOc1ccccc1O | inconclusive: 12.6 µM [inhibitor, partial curve]
41 | COc1ccc(C)cc1NC(=S)NC(C)c1ccc(OC)c(OC)c1 (stereo not given) | inconclusive: 28.2 µM [inhibitor, partial curve]
42 | COc1ccc2c(c1)SCCC2=O | inactive
43 | CC1S/C(=N/N=C2CCCCC2)NC1=O (stereo not given) | inconclusive: 7.94 µM [inhibitor, full curve]
44 | COc1ccc2c(c1)c(C(=O)N/N=C/c1ccc(O)c(O)c1)c(C)n2C | active: 31.6 µM
45 | CCCc1ccc(C(=O)NNc2ccc(F)cc2)cc1 | inconclusive: 15.8 µM [inhibitor, partial curve]
46 | COc1ccc(C)c2sc(NNC(=O)COc3ccccc3)nc12 | inconclusive: 3.55 µM [inhibitor, full curve]
47 | Cn1cc(S(=O)(=O)c2ccccc2)c(=O)c2cc(F)c(N3CCCC3)cc21 | inactive
48 | Cc1ccc(SCC2=NNC(=O)C2)cc1 | inconclusive: 31.4 µM [inhibitor, partial curve]

Row | SMILES | Potency
49 | O=C(NNc1cccc(Cl)n1)c1c(F)cccc1F | inconclusive: 39.5 µM [inhibitor, single point]
50 | COc1cc2c(cc1OC)CN(Cc1cc(OC)c(O)c(OC)c1)CC2 | inconclusive: 8.84 µM [inhibitor, full curve]
51 | COc1cc(/C=N/N2C(C)CCCC2C)cc(OC)c1O (stereo not given) | inconclusive: 7.94 µM [inhibitor, full curve]
52 | CC1=NNC(=O)C1CCC(=O)N/N=C\c1ccc(Cl)c(Cl)c1 (stereo not given) | inconclusive: 17.8 µM [inhibitor, partial curve]
53 | COc1cccc(Nc2ccc(C(=O)O)cc2N)c1 | inconclusive: 5.62 µM [inhibitor, partial curve]
54 | CCOc1cc2c3c(c1)C1(Nc4ccccc4S1)C(=O)N3C(C)(C)CC2C (stereo not given) | active: 35.5 µM
55 | CCNC(=S)NNC(=O)c1csc2c1CCC(C)C2 (stereo not given) | inconclusive: 19.8 µM [inhibitor, single point]
56 | c1ccc(Nc2nc(-c3ccccc3)nc3ccccc23)cc1 | inactive
57 | S=c1[nH]nc(-c2cccnc2)n1/N=C/c1ccco1 | inconclusive: 50.1 µM [inhibitor, single point]
58 | Cc1ccc(N(Cc2cccs2)C(=O)c2ccccc2[N+](=O)[O-])cc1 | inactive
59 | Cc1ccc(CN2CCN(c3cccc4[nH]ccc34)CC2)cc1 | inconclusive: 39.5 µM [inhibitor, single point]
60 | CCOC(=O)c1c(-c2cccs2)csc1NC(=O)COC(=O)c1c(C)noc1C | inactive
61 | Cc1ccccc1Nc1c(-c2c[nH]c3ccccc23)nc2cccc(C)n12 | inconclusive: 3.98 µM [inhibitor, full curve]
62 | CCCN1CCC(=NNc2ccc(S(=O)(=O)N3CCOCC3)cc2[N+](=O)[O-])CC1 | inconclusive: 11.2 µM [inhibitor, partial curve]
63 | Cc1ccc(C)c(N2CCN(S(=O)(=O)c3ccc4c(c3)NC(=O)CO4)CC2)c1 | inconclusive: 20 µM [inhibitor, partial curve]
64 | O=C(CNS(=O)(=O)c1cccs1)N1CCN(c2ccccc2F)CC1 | inconclusive: 11.2 µM [inhibitor, single point]
65 | CN(C)c1ccc(NC(=O)Cn2cc(S(=O)(=O)Cc3ccccc3Cl)c3ccccc32)cc1 | inactive
66 | C/C(=N/Nc1nc(C)cc(C)n1)c1ccc(Br)cc1 | inconclusive: 28.2 µM [inhibitor, partial curve]
67 | O=[N+]([O-])c1ccccc1C1Nc2cccc3cccc(c23)N1 | inconclusive: 50.1 µM [inhibitor, single point]
68 | CC[C@H](C)C(=O)O[C@H]1CCC=C2C=C[C@H](C)[C@H](CC[C@@H]3C[C@@H](O)CC(=O)O3)[C@H]21 | inactive
69 | Cn1c(=O)c(Nc2ccc(O)cc2)c2c3c(cccc31)C(=O)c1ccccc1-2 | inconclusive: 7.94 µM [inhibitor, full curve]
70 | COCCNC(=S)N/N=C/c1ccc(N2CCOCC2)cc1 | inconclusive: 11.2 µM [inhibitor, single point]
